Some of the results follow. Binding of human antibodies (heavy:light variable regions, tested as scFv in one mRNA-display pool) to influenza hemagglutinin, with or without the stem antibody CR9114 bound first. Score = (mean enrichment − median) / interquartile range of that screen; higher = more enriched, 0 = typical non-binder. Active = above the paper's cut-off per screen: stems 28; unblocked H1 Solomon Islands 5, H1 Michigan 3, H3 5, H5 19, H7 2.85, both B 5; blocked 9, 7, H5 10, H7 10, B Phuket 10, B Lee 11.5. Scores are scaled within each screen and are no affinities; replicates correlate at about 0.6 to 0.9, and antibodies rare in the pool are noisier.
B1: AG11-3C06 (protein)
chain 1: VQLVESGGVVVQPGGSLNLSCAASGFTFDDYAMHWVRQGPGKGLEWVSLISWDGGSRYYADSVKGRFTISRDNSKNSLYLEMNSLRTEDTALYYCAKDLGSSWYQLGEKAFDSWGQGTLVTVSS
chain 2: IVMTQSPSSLSASVGDRVTITCQASHDISHYLNWYQQKPGRAPKLLIYDASNLATGVPSRFSGSGSGTDFTFTISTLQPEDIATYFCQHYDHLPQITFGPGTKVEIK
B2: C1-3A03 (protein)
chain 1: QLQLQESGPGLVKPSETLSLTCTVDGGSISSSSYYWDWIRQPPGKGLEWIGSIYYSGETYHNPSLKTRVTTSVDTSKNQFSLRLSSVTAADTAVYYCARRCGGYQYYYGMDVWGQGTTVTV
chain 2: EIVMTQSPATLSVSPGERATLSCRVSQSVIRDLAWYQQKPGQAPRLLIYGASTRATGIPARFSGSGSGTEFTLTISSVHSEDFAVYYCQQYNNWAPITFGQGTRLEIK
B3: 01.f.01 (protein)
chain 1: EVQLLESGGGVVQPGGSLRLSCGATGFALRDYGIHWVRQAPGQGLEWVAFTRHDGTHKDYIDSVKGRFTISRDNSKNTLYLQMNRLRVEDTAIYYCAKVGYQLLYSGAFHIWGQGTMVSVS
chain 2: DIVMTQSPVSLPVTPGEPASISCRSSQSLLHTSEYNYLDWYLQKPGQSPQLLIYLGSHRASGVPDRFSGSGSGTDFTLKISRVEAEDVGVYYCMQALQTPQTFGQGTKLEIK
B4: 045-09-1A01 (protein)
chain 1: QVQLQESGPGLVKPSQTLSLTCTVSGGSIRSGIHYWSWIRQFPGKGLEWIGLIHYSENTHHNPSLKSRVAMSVDTSKNQFSLTLSSVTAADTAVYYCARAAKESLCIGGSCDSNYEHYGLDVWGQGTTVTVSS
chain 2: DIQMTQSPSSLSASIGDRVTITCRASQSIRNYLNWYQQKPGKAPKLVIYAVSNLQSGVPSRFSGSGSGTDFTLTISSLQPEDLATYYCQQSYSTLPYTFGQGTKVEIK
B5: C1-F02 (protein)
chain 1: VQLQESGPGLVKPSETLSLTCTVSGGSIYSTIHYWGWIRQPPGKGLEWIGSIYYDANTYYNPSLKSRVTMSIDTSKNQFSLRVYSVTAADTAVYYCAKINSGYEYYYGMDVWGQGTTVTVSS
chain 2: EIVMTQSPGTLSVSPGERATLSCRASQSVRGNVAWYQQKSGQAPRLLIYNTSTRATGIPARFSGSGSGTEFTLTISSLQSEDLAVYYCQQYNNWLYTFGQGTKVEIK
B6: AG13-3E05 (protein)
chain 1: VQLQESGPGLVSPSETLSLTCTVSADSINSYYWNWIRQPPGKGLEWIGYIHYSGRSIHNPSLNRRVTISMDTSKNQFSLRLTSVTAADTAMYYCASLKKGETSPFDYWGQGTLVTVSS
chain 2: DIQMTQSPSTLSASVGDRVSLTCRASQSIGSWLAWYQQKPGKAPKLLIFHASSLESGVPSRFSGSGSGTEFTLTINSLQPDDFATYYCQQYYVYWTFGQGTKVEIK

target: Influenza A H1N1 A/Michigan/45/2015 hemagglutinin ectodomain; assay: mRNA display binding score; higher = more enriched on the antigen; details: antigen blocked with: 2 µM CR9114 IgG
Description: (§1)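 A pool of natively paired antibodies, displayed as scFv on mRNA, was selected once on antigen-coated beads and sequenced before and after; two replicates.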

| Binder | mRNA display binding score |
| --- | --- |
| B1 | inactive: 0.0682 |
| B2 | inactive: -0.157 |
| B3 | inactive: -0.362 |
| B4 | active: 23.7 |
| B5 | inactive: 2.02 |
| B6 | inactive: 1.17 |

same assay, conditions: antigen blocked with: nothing

| Binder | mRNA display binding score |
| --- | --- |
| B1 | active: 6.63 |
| B2 | inactive: -0.158 |
| B3 | inactive: 0.109 |
| B4 | inactive: 0.406 |
| B5 | inactive: -0.313 |
| B6 | inactive: 0.45 |

target: Influenza A H1N1 A/Solomon Islands/3/2006 hemagglutinin ectodomain; assay: as above; details: antigen blocked with: 2 µM CR9114 IgG
Description: as §1

| Binder | mRNA display binding score |
| --- | --- |
| B1 | inactive: -0.413 |
| B2 | inactive: -0.597 |
| B3 | inactive: 0.393 |
| B4 | inactive: 0.941 |
| B5 | inactive: -0.0949 |
| B6 | inactive: 2.86 |

same assay, conditions: antigen blocked with: nothing

| Binder | mRNA display binding score |
| --- | --- |
| B1 | inactive: 1.71 |
| B2 | inactive: 1.16 |
| B3 | inactive: -0.214 |
| B4 | inactive: 0.181 |
| B5 | active: 6.69 |
| B6 | inactive: 0.279 |

target: Influenza A H3N2 A/Singapore/INFIMH-16-0019/2016 hemagglutinin ectodomain; assay: as above; details: antigen blocked with: nothing
Description: as §1

| Binder | mRNA display binding score |
| --- | --- |
| B1 | inactive: 0.242 |
| B2 | inactive: -0.231 |
| B3 | inactive: 0.665 |
| B4 | inactive: 3.18 |
| B5 | active: 6.83 |
| B6 | inactive: -0.241 |

target: Influenza A H5N1 A/Qinghai/1A/2005 hemagglutinin ectodomain; assay: as above; details: antigen blocked with: 2 µM CR9114 IgG
Description: as §1

| Binder | mRNA display binding score |
| --- | --- |
| B1 | inactive: -0.825 |
| B2 | inactive: -0.0603 |
| B3 | inactive: 0.1 |
| B4 | inactive: -0.65 |
| B5 | inactive: 0.271 |
| B6 | inactive: 0.961 |

same assay, conditions: antigen blocked with: nothing

| Binder | mRNA display binding score |
| --- | --- |
| B1 | inactive: 1.3 |
| B2 | inactive: -0.236 |
| B3 | inactive: -0.223 |
| B4 | inactive: -0.173 |
| B5 | inactive: 0.0843 |
| B6 | inactive: -0.214 |

target: Influenza A H7N9 A/Shanghai/2/2013 hemagglutinin ectodomain; assay: as above; details: antigen blocked with: 2 µM CR9114 IgG
Description: as §1

| Binder | mRNA display binding score |
| --- | --- |
| B1 | inactive: -0.856 |
| B2 | inactive: -0.841 |
| B3 | inactive: 0.294 |
| B4 | inactive: 2.31 |
| B5 | inactive: -0.177 |
| B6 | inactive: -0.188 |

same assay, conditions: antigen blocked with: nothing

| Binder | mRNA display binding score |
| --- | --- |
| B1 | inactive: 1.67 |
| B2 | inactive: -0.714 |
| B3 | inactive: 0.229 |
| B4 | inactive: -0.0641 |
| B5 | inactive: 0.496 |
| B6 | inactive: 0.0213 |

target: Influenza B/Lee/1940 hemagglutinin ectodomain; assay: as above; details: antigen blocked with: 2 µM CR9114 IgG
Description: as §1

| Binder | mRNA display binding score |
| --- | --- |
| B1 | inactive: -0.0285 |
| B2 | inactive: -0.679 |
| B3 | inactive: 0.0507 |
| B4 | inactive: -0.107 |
| B5 | inactive: -0.537 |
| B6 | inactive: -0.183 |

same assay, conditions: antigen blocked with: nothing

| Binder | mRNA display binding score |
| --- | --- |
| B1 | inactive: 1.75 |
| B2 | inactive: 0.479 |
| B3 | inactive: 0.354 |
| B4 | inactive: 0.37 |
| B5 | inactive: 1.06 |
| B6 | inactive: 0.482 |

target: Influenza B/Phuket/3073/2013 hemagglutinin ectodomain; assay: as above; details: antigen blocked with: 2 µM CR9114 IgG
Description: as §1

| Binder | mRNA display binding score |
| --- | --- |
| B1 | inactive: -0.275 |
| B2 | inactive: -0.458 |
| B3 | inactive: -0.172 |
| B4 | inactive: -0.225 |
| B5 | inactive: 0.0434 |
| B6 | inactive: -0.000958 |

same assay, conditions: antigen blocked with: nothing

| Binder | mRNA display binding score |
| --- | --- |
| B1 | inactive: 1.4 |
| B2 | inactive: 0.309 |
| B3 | inactive: 0.248 |
| B4 | inactive: 0.214 |
| B5 | inactive: 2.53 |
| B6 | inactive: 0.793 |

Source: the supplement of paper PMC11383711
